According to patent US12104178B2, “DHFR tunable protein regulation” (Obsidian Therapeutics, Inc., priority 2017, dated 2024):

Experiments:
Format in all cases: cell-based, human
[1] = system: HCT-116 cells; experiment: DD regulated luciferase, western blot and luciferase activity; settings: 1 μM Shield-1 or 10 μM Trimethoprim, 24 h
Description: DD regulated luciferase can be used to track cells in vivo e.g. T cells. Firefly luciferase or Renilla luciferase may be utilized as the payload. HCT-116 cells were stably transduced with the constitutive (OT-RLuc-001) or DD regulated constructs (OT-RLuc-002, OT-RLuc-003, OT-RLuc-004, OT-RLuc-005 and OT-RLuc-006). […] Blots were also probed with anti-GAPDH antibody to ensure uniform protein loading in all samples. […] (FIG. 59A).
Ligand dependent activity of Renilla and firefly luciferase constructs was measured using coelentrazine and luciferin substrates respectively. […] Luciferase activity was measured as luminescence reading using a luminometer and the values were compared to control samples consisting of lysis buffer and substrate.

[2] = system: HEK293T cells; experiment: FKBP-IL12 transient transfection, IL12 p40 ELISA; settings: 10 μM Shield-1 vs vehicle
Procedure: HEK293T cells were transiently transfected with 200 ng or 1 μg of FKBP-IL12 plasmids (OT-IL12-001 to OT-IL12-005), and subsequently treated with 10 μM Shield-1 or vehicle control for 6 hours. Culture media was collected from transfected cells and diluted 1:50 to measure IL12 levels using p40 ELISA. The stabilization ratio was defined as fold change in IL12 expression with ligand treatment compared to treatment with DMSO (i.e. in the absence of ligand) with the same construct. Stabilization ratio greater than 1 is desired.

[3] = system: IL12 receptor, STAT4; experiment: HEK-Blue sensor cell functional IL12 assay; settings: media of Shield-1 treated cells
Procedure: HEK-Blue sensor cells (InvivoGen, San Diego, CA) were utilized to evaluate whether DD regulated IL12 is capable of regulating signaling downstream of IL12. In these cells, the IL12 receptor, STAT4 and downstream transcriptional elements are linked to a reporter gene such that IL12 signaling can be monitored. One million HEK 293T were transfected with 200 ng of OT-IL12-003 plasmid using Lipofectamine 2000 (Thermo Fisher Scientific, Waltham, MA). 48 hours after transfection, cells were treated with growth media containing 10 μM Shield-1, incubated for another 24 hours, following which, media was collected. 50,000 HEK 293 Blue sensor cells were plated onto 96 well plates and incubated overnight with media (at different dilutions) from Shield-1 treated OT-IL12-003 expressing HEK293T cells. […] Absorption was measured at 620 nm using a spectrophotometer. […] Functional IL12 concentrations were determined by comparing the optical density of each sample with IL12 standard curve.
The dependence of functional IL12 production on the dose of Shield-1 used was measured. […] Absorption was measured at 620 nm using a spectrophotometer. […] Functional IL12 concentrations were determined by comparing the optical density of each sample with IL12 standard curve.

| Molecule | Luciferase stabilization by western blot (FIG. 59A) [1] | Stabilization ratio [2] | Functional IL12 (HEK-Blue, FIG. 31A, 31B) [3] |
| --- | --- | --- | --- |
| OT-RLuc-003: DD regulated Renilla luciferase, ligand Shield-1 (protein) [about 100 residues omitted]SGTSKVYDPEQRKRMITGPQWWARCKQMNVLDSFINYYDSEKHAENAVIFLHGNAASSYLWRHVVPHIEPVARCIIPDLIGMGKSGKSGNGSYRLLDHYKYLTAWFELLNLPKKIIFVGHDWGACLAFHYSYEHQDKIKAIVHAESVVDVIESWDEWPDIEEDIALIKSEEGEKMVLENNFFVETMLPSKIMRKLEPEEFAAYLEPFKEKGEVRRPTLSWPREIPLVKGGKPDVVQIVRNYNAYLRASDDLPKMFIESDPGFFSNAIVEGAKKFPNTEFVKVKGLHFSQEDAPDEMGKYIKSFVERVLKNEQ | strong Shield-1 dependent stabilization of Renilla luciferase |  |  |
| OT-IL12-003: FKBP-IL12 plasmid (protein) MCHQQLVISWFSLVFLASPLVA[about 100 residues omitted]SARNRQKRSIWELKKDVYVVELDWYPDAPGEMVVLTCDTPEEDGITWTLDQSSEVLGSGKTLTIQVKEFGDAGQYTCHKGGEVLSHSLLLLHKKEDGIWSTDILKDQKEPKNKTFLRCEAKNYSGRFTCWWLTTISTDLTFSVKSSRGSSDPQGVTCGAATLSAERVRGDNKEYEYSVECQEDSACPAAEESLPIEVMVDAVHKLKYENYTSSFFIRDIIKPDPPKNLQLKPLKNSRQVEVSWEYPDTWSTPHSYFSLTFCVQVQGKSKREKKDRVFTDKTSATVICRKNASISVRAQDRYYSSSWSEWASVPCSGGGGSGGGGSGGGGSRNLPVATPDPGMFPCLHHSQNLLRAVSNMLQKARQTLEFYPCTSEEIDHEDITKDKTSTVEACLPLELTKNESCLNSRETSFITNGSCLASRKTSFMMALCLSSIYEDLKMYQVEFKTMNAKLLMDPKRQIFLDQNMLAVIDELMQALNFNSETVPQKSSLEEPDFYKTKIKLCILLHAFRIRAVTIDRVMSYLNAS |  | 1.21 | Measurable levels of functional IL12 were reached with 640-fold dilutions |
